Source: patent US20260232794A1 (YANTAI PATRONUS BIOTECH, published 2026)

B1: binding peptide 2-AP205 fusion protein AP205-4C (other)
chain: MGSSHHHHHHGSGDS[… about 80 residues …]GKATKGDAHIGSGGSGGSGANKPMQPITSTANKIVWSDPTRLSTTFSASLLRQRVKVGIAELNNVSGQYVSVYKRPAPKPEGCADACVIMPNENQSIRTVISGSAENLATLKAEWETHKRNVDTLFASGNAGLGFLDPTAAIVSSDTTA
B2: binding peptide 2-Ferritin fusion protein Ferritin-4C (other)
chain: MHHHHHHGGSDS[… about 80 residues …]GKATKGDAHISGGSGGDIIKLLNEQVNKEMNSSNLYMSMSSWCYTHSLDGAGLFLFDHAAEEYEHAKKLIIFLNENNVPVQLTSISAPEHKFEGLTQIFQKAYEHEQHISESINNIVDHAIKSKDHATFNFLQWYVAEQHEEEVLFKDILDKIELIGNENHGLYLADQYVKGIAKSRKS

How the values were obtained:
[1] = molecular target: T1, VZV gE-binding peptide 1 fusion protein VZV gE-4T with linker peptide 1 (EAAAK)3 (varicella-zoster virus); experiment: covalent conjugation, mixed 2:1, 22 C for 24 h; SDS-PAGE, DLS, TEM
T1 construct: Expressed in CHO cells; also called antigenic component

[2] = molecular target: T2, VZV gE-binding peptide 1 fusion protein VZV gE-4T with linker peptide 1 (G4S)3 (varicella-zoster virus); experiment: as above
T2 construct: Expressed in CHO cells, without signal peptide; also called antigenic component

[3] = molecular target: T1, VZV gE-binding peptide 1 fusion protein …; experiment: SDS-PAGE, DLS, TEM of the binding product
[4] = molecular target: T2, VZV gE-binding peptide 1 fusion protein …; experiment: SDS-PAGE, DLS, TEM of the binding product

| Binder | binding result [1] | binding result [2] | binding result [3] | binding result [4] |
| --- | --- | --- | --- | --- |
| B1 | binds | binds | – | – |
| B2 | – | – | binds | binds |
